# Results taken from the supplement of paper PMC8728848.
# The list shows a part of the results.
# B1: XL-35 (Xenopus laevis) (protein)
# chain: MLVHILLLLVTGGLSQSCDPVVIVASKNMVKQLDCDKFRNCKEIKDSNEEAQDGIYTLTSPDGISYQTFCDMTTNGGGWTLVASVHENNMAGKCTIGDRWSSQQGNRADYPEGDGNWANYNTFGSAGGATSDDYKNPGYYDIEAYNLGVWHVPNKTPLSVWRNSSLQRYRTTDGILFKHGGNLFSLYRIYPVKYGIGSCSKDSGPTVPVVYDLGSANLTASFYSPGFRSQFTPGYIQFRPINTEKAALALCPGMKMESCNVEHVCIGGGGYFPEADPRQCGDFAAYDFNGYGTKKFNSAGIEITEAAVLLFYL
# Key:
# Experiment in all cases: glycan array binding signal (z-score within array); higher = stronger binding
# Conditions in all cases: glycan notation: IUPAC condensed, linker removed
# [1] = target: Neu5Ac(a2-6)GlcNAc(b1-4)GlcNAc(b1-4)GlcNAc
# How it was run: (§1)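 The binding signal is a Z-score computed within each array and averaged over linkers. Arrays of the same protein sequence at different concentrations or buffers were also averaged together. Data originate from 3228 arrays in the Consortium for Functional Glycomics database, kept only where the protein sequence was available.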
# Neu5Ac(a2-8)Neu5Ac = target: Neu5Ac(a2-8)Neu5Ac
# How it was run: as §1
# [2] = target: Neu5Ac(a2-8)Neu5Ac(a2-3)Gal(b1-3)GalNAc(b1-4)[Neu5Ac(a2-3)]Gal(b1-4)Glc
# How it was run: as §1
# [3] = target: Neu5Ac(a2-8)Neu5Ac(a2-3)Gal(b1-3)GalNAc(b1-4)[Neu5Ac(a2-8)Neu5Ac(a2-3)]Gal(b1-4)Glc
# How it was run: as §1
# [4] = target: Neu5Ac(a2-8)Neu5Ac(a2-3)Gal(b1-4)Glc
# How it was run: as §1
# [5] = target: Neu5Ac(a2-8)Neu5Ac(a2-3)Gal(b1-4)GlcNAc
# How it was run: as §1
# [6] = target: Neu5Ac(a2-8)Neu5Ac(a2-3)[Gal(b1-3)GalNAc(b1-4)]Gal(b1-4)Glc
# How it was run: as §1
# [7] = target: Neu5Ac(a2-8)Neu5Ac(a2-3)[GalNAc(b1-4)]Gal(b1-4)Glc
# How it was run: as §1
# [8] = target: Neu5Ac(a2-8)Neu5Ac(a2-8)Neu5Ac
# How it was run: as §1
# [9] = target: Neu5Ac(a2-8)Neu5Ac(a2-8)Neu5Ac(a2-3)Gal(b1-4)Glc
# How it was run: as §1
# [10] = target: Neu5Ac(a2-8)Neu5Ac(a2-8)Neu5Ac(a2-3)[Gal(b1-3)GalNAc(b1-4)]Gal(b1-4)Glc
# How it was run: as §1
# [11] = target: Neu5Ac(a2-8)Neu5Ac(a2-8)Neu5Ac(a2-3)[GalNAc(b1-4)]Gal(b1-4)Glc
# How it was run: as §1
# [12] = target: Neu5Ac(a2-8)Neu5Ac(a2-8)Neu5Ac(a2-8)Neu5Ac(a2-3)[GalNAc(b1-4)]Gal(b1-4)Glc
# How it was run: as §1
# [13] = target: Neu5Ac(a2-8)Neu5Gc(a2-3)Gal(b1-4)GlcNAc
# How it was run: as §1
# [14] = target: Neu5Ac(b2-6)Gal(b1-4)GlcNAc
# How it was run: as §1
# Neu5Ac(b2-6)GalNAc = target: Neu5Ac(b2-6)GalNAc
# How it was run: as §1
# [15] = target: Neu5Ac9Ac(a2-3)Gal(b1-3)GlcNAc
# How it was run: as §1
# [16] = target: Neu5Ac9Ac(a2-3)Gal(b1-4)GlcNAc
# How it was run: as §1
# [17] = target: Neu5Ac9Ac(a2-6)Gal(b1-4)GlcNAc
# How it was run: as §1
# [18] = target: Neu5Gc(a2-3)Gal(b1-3)GlcNAc
# How it was run: as §1
# [19] = target: Neu5Gc(a2-3)Gal(b1-3)[Fuc(a1-4)]GlcNAc
# How it was run: as §1
# Neu5Gc(a2-3)Gal(b1-4)Glc = target: Neu5Gc(a2-3)Gal(b1-4)Glc
# How it was run: as §1
# [20] = target: Neu5Gc(a2-3)Gal(b1-4)GlcNAc
# How it was run: as §1
# [21] = target: Neu5Gc(a2-3)Gal(b1-4)GlcNAc(b1-3)Gal(b1-4)GlcNAc(b1-2)Man(a1-3)[Neu5Gc(a2-3)Gal(b1-4)GlcNAc(b1-3)Gal(b1-4)GlcNAc(b1-2)Man(a1-6)]Man(b1-4)GlcNAc(b1-4)GlcNAc
# How it was run: as §1
# [22] = target: Neu5Gc(a2-3)Gal(b1-4)[Fuc(a1-3)]GlcNAc
# How it was run: as §1
# [23] = target: Neu5Gc(a2-3)Gal(b1-4)[Fuc(a1-4)]GlcNAc
# How it was run: as §1
# [24] = target: Neu5Gc(a2-6)Gal(b1-4)GlcNAc
# How it was run: as §1
# Neu5Gc(a2-6)GalNAc = target: Neu5Gc(a2-6)GalNAc
# How it was run: as §1
# [25] = target: Neu5Gc(a2-8)Neu5Ac(a2-3)Gal(b1-4)GlcNAc
# How it was run: as §1
# [26] = target: Neu5Gc(a2-8)Neu5Gc(a2-3)Gal(b1-4)GlcNAc
# How it was run: as §1
# [27] = target: Neu5Gc(a2-8)Neu5Gc(a2-3)Gal(b1-4)GlcNAc(b1-3)Gal(b1-4)GlcNAc
# How it was run: as §1
# [28] = target: Neu5Gc(a2-8)Neu5Gc(a2-6)Gal(b1-4)GlcNAc
# How it was run: as §1
# [29] = target: Neu5Gc(b2-6)Gal(b1-4)GlcNAc
# How it was run: as §1
binder,measurement,setting,value
B1,glycan array binding signal (z-score),[1],-0.199
same,glycan array binding signal (z-score),Neu5Ac(a2-8)Neu5Ac,-0.216
same,glycan array binding signal (z-score),[2],-0.43
same,glycan array binding signal (z-score),[3],0.319
same,glycan array binding signal (z-score),[4],-0.079
same,glycan array binding signal (z-score),[5],-0.645
same,glycan array binding signal (z-score),[6],-0.062
same,glycan array binding signal (z-score),[7],-0.257
same,glycan array binding signal (z-score),[8],-0.113
same,glycan array binding signal (z-score),[9],-0.205
same,glycan array binding signal (z-score),[10],0.08
same,glycan array binding signal (z-score),[11],0.02
same,glycan array binding signal (z-score),[12],0.161
same,glycan array binding signal (z-score),[13],0.012
same,glycan array binding signal (z-score),[14],-0.252
same,glycan array binding signal (z-score),Neu5Ac(b2-6)GalNAc,-0.153
same,glycan array binding signal (z-score),[15],-0.403
same,glycan array binding signal (z-score),[16],-0.407
same,glycan array binding signal (z-score),[17],-0.226
same,glycan array binding signal (z-score),[18],-0.235
same,glycan array binding signal (z-score),[19],-0.185
same,glycan array binding signal (z-score),Neu5Gc(a2-3)Gal(b1-4)Glc,0.032
same,glycan array binding signal (z-score),[20],-0.172
same,glycan array binding signal (z-score),[21],-0.139
same,glycan array binding signal (z-score),[22],-0.361
same,glycan array binding signal (z-score),[23],-0.087
same,glycan array binding signal (z-score),[24],-0.141
same,glycan array binding signal (z-score),Neu5Gc(a2-6)GalNAc,-0.112
same,glycan array binding signal (z-score),[25],0.085
same,glycan array binding signal (z-score),[26],-0.302
same,glycan array binding signal (z-score),[27],-0.367
same,glycan array binding signal (z-score),[28],0.417
same,glycan array binding signal (z-score),[29],0.189
